This is one part of the list. The full chains were built here from the parent and the listed change. Inactive controls read about 0.05.
B1: TEV protease; numbered along this chain (parent)
chain: MGESLFKGPRDYNPISSSICHLTNESDGHTTSLYGIGFGPFIITNKHLFRRNNGTLVVQSLHGVFKVKDTTTLQQHLVDGRDMIIIRMPKDFPPFPQKLKFREPQREERICLVTTNFQTKSMSSMVSDTSCTFPSGDGIFWKHWIQTKDGQCGSPLVSTRDGFIVGIHSASNFTNTNNYFTSVPKNFMELLTNQEAQQWVSGWRLNADSVLWGGHKVFMVKPEEPFQPVKEATQL

Variants of: B1
Test: raw area under fraction-flipped curve 0-4 h after induction (AUC4h, not background-subtracted), DNA-recorder readout of cleavage of the substrate (dimensionless); higher = more cleavage of the substrate by the protease variant
Details: temperature: 34 °C; time window: 0-4 h after rhamnose induction
Method: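 In vivo DNA recorder in E. coli TOP10(DE3) ΔrhaA at 34 °C. Each TEVp single-site mutant (parent TEVp 0) is paired with a single-site variant of the 7-mer TEVs (canonical ENLYFQ|S). The substrate sits between flexible linkers in a Bxb1-sfGFP-TEVs-SsrA fusion, so cleavage stabilises Bxb1 and speeds flipping of a recombination array, read by NGS. The value is the raw area under the fraction-flipped curve over 0-4 h after rhamnose induction (AUC4h), with ≥20 reads per time point. It is not background-subtracted; inactive controls average about 0.047.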
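Note: Bxb1 expression induced with 0.2% (w/v) L-rhamnose at OD600 near 0.5, cultures sampled hourly, flipped fraction per protease–substrate barcode pair counted by paired-end Illumina sequencing.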

Row | Variant | area with substrate ANLYFQS | area with substrate CNLYFQS | area with substrate DNLYFQS | area with substrate FNLYFQS | area with substrate HNLYFQS | area with substrate INLYFQS | area with substrate KNLYFQS | area with substrate LNLYFQS | area with substrate MNLYFQS | area with substrate NNLYFQS | area with substrate PNLYFQS | area with substrate QNLYFQS | area with substrate RNLYFQS | area with substrate SNLYFQS | area with substrate TNLYFQS | area with substrate WNLYFQS | area with substrate YNLYFQS | area with substrate GNLYFQS | area with substrate VNLYFQS
1 | H21G | 0.0867 | 0.0594 | 0.0818 | 0.0515 | 0.0614 | 0.0634 | 0.0664 | 0.0557 | 0.075 | 0.0735 | 0.0677 | 0.073 | 0.0624 | 0.0608 | 0.0613 | 0.0581 | 0.0608 | – | –
2 | H21W | 0.0751 | 0.0623 | 0.0832 | 0.0503 | 0.0561 | 0.0664 | 0.0588 | 0.022 | 0.0614 | – | 0.0598 | 0.0694 | – | 0.061 | 0.0683 | 0.0762 | 0.061 | 0.0573 | 0.0831
3 | H21N | 0.0622 | 0.0529 | 0.0826 | 0.0552 | 0.0652 | – | 0.071 | 0.0535 | 0.046 | – | 0.0756 | – | – | 0.0464 | 0.0601 | 0.0629 | 0.0583 | – | 0.0555
4 | H21Y | 0.0551 | 0.0643 | 0.0771 | – | 0.0643 | 0.0784 | – | 0.0636 | – | – | 0.0582 | 0.053 | – | – | 0.0576 | 0.066 | 0.0572 | – | 0.0581
5 | R10G | 0.0656 | 0.0661 | 0.0773 | 0.0507 | 0.0588 | 0.0718 | 0.0713 | – | 0.0547 | 0.0778 | 0.0734 | 0.06 | 0.0777 | 0.0683 | 0.0571 | 0.0595 | 0.0621 | 0.0729 | 0.0487
6 | R10P | 0.0504 | 0.0774 | 0.0689 | 0.0597 | 0.0667 | 0.0778 | – | 0.0772 | 0.0702 | – | – | 0.0635 | – | – | 0.0598 | 0.0787 | 0.0595 | 0.0635 | 0.0595
7 | R10V | 0.0624 | 0.0489 | 0.072 | 0.0705 | 0.067 | 0.0635 | 0.0843 | 0.0645 | 0.0533 | – | 0.0645 | – | 0.0677 | 0.061 | 0.0786 | 0.0621 | 0.0439 | – | –
8 | R10C | 0.0446 | 0.0756 | 0.0781 | 0.0638 | 0.0583 | 0.0654 | – | 0.0703 | 0.0512 | 0.0643 | 0.0769 | – | 0.0764 | 0.0474 | – | 0.0618 | – | 0.0603 | –
9 | E25P | 0.0479 | 0.053 | 0.0598 | 0.0596 | 0.0567 | 0.0453 | – | 0.04 | 0.0511 | 0.0538 | 0.0571 | – | – | 0.0562 | 0.057 | 0.0532 | 0.0342 | 0.068 | 0.0266
10 | F6H | 0.0638 | 0.0678 | 0.0863 | 0.0708 | 0.101 | – | 0.0618 | – | – | 0.0653 | – | – | – | 0.0575 | 0.056 | 0.0593 | 0.0545 | – | 0.0446
11 | S17F | 0.0683 | 0.0686 | 0.0679 | 0.0649 | 0.0703 | 0.0664 | – | 0.0602 | 0.0762 | 0.0394 | 0.0615 | – | – | 0.0555 | 0.0651 | 0.0604 | 0.0602 | – | –
12 | S17Q | 0.0647 | 0.0715 | 0.0757 | – | 0.0657 | 0.0757 | 0.0706 | 0.0617 | 0.0751 | 0.0658 | 0.0746 | – | – | 0.0704 | 0.0673 | 0.0556 | 0.0633 | 0.0038 | 0.0702
13 | S17D | 0.068 | 0.0543 | 0.0787 | – | 0.0696 | 0.0613 | 0.0639 | 0.0591 | 0.0593 | – | 0.0834 | – | 0.0677 | 0.0728 | 0.0776 | 0.0566 | 0.0631 | 0.0676 | 0.0651
14 | S26C | 0.061 | 0.0625 | 0.0738 | 0.0628 | 0.0606 | – | – | 0.079 | – | – | – | 0.0562 | – | 0.0647 | 0.0375 | 0.07 | 0.0606 | – | –
15 | T23S | 0.0639 | 0.0666 | 0.0735 | 0.0655 | 0.0701 | 0.0811 | – | 0.0567 | 0.0609 | 0.0608 | 0.0566 | – | – | 0.0664 | 0.068 | 0.0513 | 0.0528 | 0.0669 | –
16 | T23R | 0.063 | 0.08 | 0.0604 | – | 0.0678 | – | – | 0.0764 | 0.0627 | – | 0.0634 | – | 0.0425 | 0.0509 | 0.06 | 0.0597 | – | 0.0883 | –
17 | T23I | 0.0708 | 0.0947 | 0.0956 | – | 0.0438 | 0.0456 | 0.0114 | 0.0829 | 0.0767 | – | 0.0735 | 0.071 | – | 0.0769 | 0.0584 | 0.101 | – | – | –
18 | L22W | 0.0649 | 0.0346 | 0.044 | 0.0396 | 0.0197 | – | – | 0.0471 | – | 0.0734 | 0.0509 | – | – | 0.0386 | – | 0.0434 | 0.0376 | 0.0497 | –
19 | L22K | 0.0376 | 0.0228 | 0.0458 | – | 0.0464 | 0.0375 | 0.0536 | 0.0549 | 0.0329 | – | 0.0487 | – | – | – | 0.0404 | 0.0506 | 0.0425 | 0.0549 | –
20 | L22V | 0.0408 | 0.0573 | 0.0697 | 0.0474 | 0.05 | 0.0649 | 0.0506 | 0.0644 | 0.0612 | – | 0.0519 | 0.0657 | – | 0.0656 | 0.0666 | 0.0522 | 0.0567 | 0.0666 | 0.0696
21 | S4N | 0.0713 | 0.0741 | 0.0964 | 0.0679 | 0.0543 | 0.0488 | 0.0702 | 0.0602 | – | – | 0.0719 | – | – | 0.0761 | 0.0874 | 0.0472 | 0.0658 | – | –
22 | S4R | 0.0895 | 0.0669 | 0.0867 | – | 0.0676 | 0.0668 | 0.0667 | 0.0784 | 0.0606 | 0.0343 | 0.0626 | – | – | 0.0534 | – | 0.0553 | 0.0743 | 0.0771 | 0.0677
23 | S4M | 0.0604 | 0.0694 | 0.0732 | 0.0551 | 0.0646 | 0.0571 | 0.0563 | 0.0613 | 0.0627 | – | 0.0453 | 0.0864 | – | – | 0.0613 | 0.058 | 0.0427 | 0.0728 | –
24 | S4G | 0.0601 | 0.0712 | 0.0727 | – | 0.0663 | 0.0574 | 0.0726 | 0.0626 | 0.0571 | 0.052 | 0.0672 | – | 0.0256 | 0.0596 | 0.0703 | 0.0572 | 0.0747 | 0.0603 | –
